Experimental data reported in the supplement of paper PMC4967469.
Lines with a small IC50 respond at low doses; a limit (>, <) means that the fit lies beyond the doses tested. For AUC the same curve is integrated over the 256-fold range of doses and scaled to a fraction; values near 1 show little effect. For some of these results: Any top dose called inferred is not printed in the source and was worked back from the curve model. For some of these results: An entry number marks a drug with two screens in the source, which often give different values.

What was measured:
Assay in all cases: Viability of human cancer cell lines after 72 h of drug (GDSC screen)
MP470 = compound: S=C(NCc1ccc2c(c1)OCO2)N1CCN(c2ncnc3c2oc2ccccc23)CC1 [MP470]; conditions: top dose 20 µM; top dose inferred
Description: (§1)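 Human cancer cell lines in 384-well plates, medium with 10% serum, drug for 72 h over a 256-fold dose range (nine 2-fold or five 4-fold steps up to the top dose). Adherent lines were fixed and stained with the nucleic acid dye Syto60, suspension lines read with resazurin; signal relative to control wells, capped at 0 and 100%. One two-parameter sigmoid per drug and line, fitted in a mixed model over all curves with the slope shared within a line.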

Bicalutamide = compound: CC(O)(CS(=O)(=O)c1ccc(F)cc1)C(=O)Nc1ccc(C#N)c(C(F)(F)F)c1 [Bicalutamide]; conditions: top dose inferred
Description: as §1

T0901317 = compound: O=S(=O)(c1ccccc1)N(CC(F)(F)F)c1ccc(C(O)(C(F)(F)F)C(F)(F)F)cc1 [T0901317]; conditions: top dose 10.24 µM; top dose inferred
Description: as §1

TW-37 = compound: CC(C)c1ccccc1Cc1cc(C(=O)Nc2ccc(S(=O)(=O)c3ccccc3C(C)(C)C)cc2)c(O)c(O)c1O [TW-37]; conditions: top dose 5 µM
Description: as §1

AUY922 = compound: CCNC(=O)c1noc(-c2cc(C(C)C)c(O)cc2O)c1-c1ccc(CN2CCOCC2)cc1 [AUY922]; conditions: top dose 0.256 µM; top dose inferred
Description: as §1

KIN001-270 = compound: Cc1ccc(Nc2cc(-c3cccc(N4C(=O)c5ccccc5C4=O)c3)ncn2)cc1NS(C)(=O)=O [KIN001-270]; conditions: top dose 20 µM; top dose inferred
Description: as §1

LFM-A13 = compound: C/C(O)=C(\C#N)C(=O)Nc1cc(Br)ccc1Br [LFM-A13]; conditions: top dose 16 µM; top dose inferred
Description: as §1

Gemcitabine = compound: Nc1ccn([C@@H]2O[C@H](CO)[C@@H](O)C2(F)F)c(=O)n1 [Gemcitabine]; conditions: top dose 1.024 µM
Description: as §1

[1] = top dose 1.024 µM, screen: GDSC drug entry 150
[2] = top dose 10 µM, screen: GDSC drug entry 1502

| Cell Line | AUC (MP470) | IC50 (MP470) [µM] | AUC (Bicalutamide; [1]) | IC50 (Bicalutamide; [1]) [µM] | AUC (Bicalutamide; [2]) | IC50 (Bicalutamide; [2]) [µM] | AUC (T0901317) | IC50 (T0901317) [µM] | AUC (TW-37) | IC50 (TW-37) [µM] | AUC (AUY922) | IC50 (AUY922) [µM] | AUC (KIN001-270) | IC50 (KIN001-270) [µM] | AUC (LFM-A13) | IC50 (LFM-A13) [µM] | AUC (Gemcitabine) | IC50 (Gemcitabine) [µM] |
| --- | --- | --- | --- | --- | --- | --- | --- | --- | --- | --- | --- | --- | --- | --- | --- | --- | --- | --- |
| NCI-H460 (large cell lung carcinoma, adherent) | 0.554 | 1.73 | 0.99 | > 1.02 | 0.983 | > 10 | 0.99 | > 10.2 | 0.52 | 0.353 | 0.438 | 0.011 | 0.98 | > 20 | 0.985 | > 16 | – | – |
| MDA-MB-231 (breast, adherent) | 0.892 | > 20 | – | – | – | – | 0.975 | > 10.2 | 0.365 | 0.129 | 0.747 | 0.0861 | 0.984 | > 20 | 0.947 | > 16 | – | – |
| MDA-MB-468 (breast, adherent) | 0.507 | 1.3 | 0.988 | > 1.02 | 0.986 | > 10 | 0.971 | > 10.2 | 0.338 | 0.113 | 0.668 | 0.046 | 0.961 | > 20 | 0.981 | > 16 | – | – |
| SNU-175 (large intestine, suspension) | 0.434 | 0.834 | – | – | – | – | 0.966 | > 10.2 | – | – | – | – | 0.977 | > 20 | – | – | – | – |
| YMB-1-E (breast, adherent) | 0.876 | > 20 | – | – | – | – | 0.966 | > 10.2 | – | – | – | – | 0.957 | > 20 | – | – | – | – |
| SK-MEL-5 (melanoma, adherent) | 0.892 | > 20 | – | – | 0.978 | > 10 | 0.978 | > 10.2 | 0.575 | 0.525 | – | – | 0.983 | > 20 | – | – | – | – |
| NCI-H1650 (lung adenocarcinoma, adherent) | – | – | – | – | – | – | – | – | 0.825 | 4.34 | – | – | – | – | – | – | – | – |
| COR-L303 (small cell lung carcinoma, suspension) | 0.858 | 15.6 | – | – | – | – | 0.912 | > 10.2 | – | – | – | – | 0.987 | > 20 | – | – | – | – |
| UWB1.289 (ovary, adherent) | 0.967 | > 20 | – | – | 0.976 | > 10 | 0.97 | > 10.2 | 0.688 | 1.38 | – | – | 0.956 | > 20 | – | – | – | – |
| JHOS-3 (ovary, adherent) | 0.95 | > 20 | – | – | 0.974 | > 10 | 0.966 | > 10.2 | 0.811 | 3.62 | – | – | 0.976 | > 20 | – | – | – | – |
| SNU-1040 (large intestine, adherent) | 0.913 | > 20 | – | – | 0.965 | > 10 | 0.962 | > 10.2 | – | – | – | – | 0.969 | > 20 | – | – | – | – |
| T-24 (bladder, adherent) | 0.981 | > 20 | 0.988 | > 1.02 | 0.987 | > 10 | 0.988 | > 10.2 | 0.525 | 0.364 | 0.683 | 0.0505 | 0.978 | > 20 | 0.953 | > 16 | – | – |
| Mewo (melanoma, adherent) | 0.917 | > 20 | 0.984 | > 1.02 | 0.981 | > 10 | 0.978 | > 10.2 | 0.581 | 0.545 | 0.962 | > 0.256 | 0.979 | > 20 | 0.983 | > 16 | – | – |
| Hs940-T (melanoma, adherent) | 0.904 | > 20 | 0.977 | > 1.02 | 0.97 | > 10 | 0.974 | > 10.2 | 0.573 | 0.519 | – | – | 0.984 | > 20 | – | – | 0.615 | 0.142 |
| PC-3 (prostate, adherent) | 0.928 | > 20 | – | – | – | – | 0.976 | > 10.2 | 0.631 | 0.782 | – | – | 0.948 | > 20 | 0.976 | > 16 | – | – |
| NCI-H2066 (small cell lung carcinoma, adherent) | – | – | – | – | 0.967 | > 10 | – | – | 0.618 | 0.829 | – | – | – | – | – | – | – | – |
| MDA-MB-157 (breast, adherent) | 0.985 | > 20 | 0.988 | > 1.02 | 0.983 | > 10 | 0.985 | > 10.2 | 0.662 | 0.891 | – | – | 0.974 | > 20 | 0.987 | > 16 | – | – |
| SU-DHL-10 (B-cell lymphoma, suspension) | 0.648 | 2.84 | – | – | 0.997 | > 10 | 0.983 | > 10.2 | 0.552 | 0.416 | – | – | 0.956 | 19.7 | – | – | – | – |
| COR-L311 (small cell lung carcinoma, suspension) | 0.879 | > 20 | – | – | – | – | 0.977 | > 10.2 | – | – | – | – | 0.984 | > 20 | – | – | – | – |
| LN-229 (glioma, adherent) | 0.979 | > 20 | 0.988 | > 1.02 | 0.985 | > 10 | 0.987 | > 10.2 | 0.436 | 0.209 | 0.533 | 0.0197 | 0.976 | > 20 | 0.98 | > 16 | – | – |
| SW1463 (large intestine, adherent) | – | – | 0.977 | > 1.02 | 0.953 | > 10 | – | – | 0.922 | > 5 | 0.9 | > 0.256 | 0.976 | > 20 | 0.973 | > 16 | 0.747 | 0.566 |
| KP-4 (pancreas, adherent) | 0.36 | 0.52 | 0.988 | > 1.02 | 0.972 | > 10 | 0.865 | 8.45 | 0.614 | 0.634 | 0.544 | 0.021 | 0.986 | > 20 | 0.966 | > 16 | – | – |
| COR-L32 (small cell lung carcinoma, suspension) | – | – | – | – | 0.949 | > 10 | – | – | – | – | – | – | – | – | – | – | – | – |
| MEL-HO (melanoma, adherent) | – | – | – | – | 0.982 | > 10 | – | – | 0.341 | 0.112 | – | – | – | – | – | – | – | – |
